Consider 22 molecules from the antibiotic and cytotoxicity screens of Wong et al. (2023).

Some of the results follow.

In assay [1] the test system is HSkMC (human skeletal muscle cells). Kind of assay: cytotoxicity call (relative viability < 0.9). The settings on record: 10 µM.
Assay [2] relates to HepG2. Kind of assay: cytotoxicity call (relative viability < 0.9). The settings on record: 10 µM.
The test system of assay [3] is S. aureus RN4220. Kind of assay: growth inhibition call (relative growth <= 0.2). Particulars: 50 µM.

Take `CCCCCCCCCCCCCCCC[n+]1ccccc1`: the cytotoxicity call in assay [1] and in assay [2] was “active” each time. In assay [3], the growth inhibition call is “inactive”.

As for `C=CCC1(O)CCC2C3CCC4=CCCCC4C3CCC21C` (stereo unspecified), in assay [1], the cytotoxicity call is “active”. In assay [3], the growth inhibition call is “inactive”.

As for `CCCCCCCCCC(=O)O[C@@H]1[C@@H](C)[C@]2(O)[C@@H](C=C(CO)C[C@]3(O)C(=O)C(C)=C[C@@H]23)[C@@H]2C(C)(C)[C@@]12OC(=O)CCCCCCCCC`, the cytotoxicity call in assay [1] and in assay [2] was “active” each time. Besides, the growth inhibition call in assay [3] is “inactive”.

For `CC12CCC3C(CCC4CC(O)CCC43C)C1CCC2O` (stereo unspecified), the cytotoxicity call in assay [1] was “inactive”. Moreover, the growth inhibition call in assay [3] was “inactive”.

On to `Cc1cc(C2=NO[C@](c3cc(Cl)cc(Cl)c3)(C(F)(F)F)C2)ccc1C(=O)NCC(=O)NCC(F)(F)F`, for which the cytotoxicity call in assay [1] is “active”. For the same molecule, in assay [3], the growth inhibition call is “inactive”.

On to `CC[C@H]1/C=C/C=C/C[C@@H](C)[C@H](O)[C@@](C)(O)C(=O)[C@@H](C)[C@H](O)[C@@H](C)C(=O)[C@@H](C)[C@H](O)[C@@H](C)/C=C/C(=O)O[C@@H]2[C@H](C)[C@H](CC1)O[C@]1(CC[C@H](C)[C@H](C[C@@H](C)O)O1)[C@H]2C`, for which the cytotoxicity call in assay [1] was “active”. Also, the growth inhibition call in assay [3] is “inactive”.

Consider `CNC(=O)CN1CCOCC12CCN(c1cc(OC)ncn1)CC2`, for which the cytotoxicity call in assay [1] and in assay [2] was “inactive” in each case. Also, the growth inhibition call in assay [3] is “inactive”.

Take `CC(=O)OCC1=C(C(=O)O)N2C(=O)[C@@H](NC(=O)CCC[C@@H](N)C(=O)O)[C@@H]2SC1`: the cytotoxicity call in assay [1] and in assay [2] was “inactive” each time. In addition, the growth inhibition call in assay [3] is “inactive”.

On to `CN(CC[C@@H](N)CC(=O)N[C@H]1C=C[C@H](n2ccc(N)nc2=O)O[C@@H]1C(=O)O)C(=N)N`, for which the cytotoxicity call in assay [1] and in assay [2] was “inactive” each time. Also, in assay [3], the growth inhibition call is “inactive”.

Regarding `CN1CCN(C(=O)OC2c3nccnc3C(=O)N2c2ccc(Cl)cn2)CC1` (stereo unspecified), the cytotoxicity call in assay [1] and in assay [2] was “inactive” each time. For the same molecule, the growth inhibition call in assay [3] was “inactive”.

For the molecule `CCS(=O)(=O)N1C[C@@H]2CCN[C@@H]2C1`, the cytotoxicity call in assay [1] and in assay [2] was “inactive” each time. Moreover, the growth inhibition call in assay [3] was “inactive”.

Take `Cc1ccc(CC2(N)CC2)cc1`: the cytotoxicity call in assay [1] and in assay [2] was “inactive” in each case. For the same molecule, in assay [3], the growth inhibition call is “inactive”.

For `CN(C)C(=O)Oc1cccc([N+](C)(C)C)c1.COS(=O)(=O)[O-]`, the cytotoxicity call in assay [1] is “inactive”. Also, the growth inhibition call in assay [3] is “inactive”.

As to `ClC(Cl)=C(c1ccc(Cl)cc1)c1ccc(Cl)cc1`, the cytotoxicity call in assay [1] and in assay [2] was “inactive” throughout. The growth inhibition call in assay [3] was “inactive”.

In the case of `CN1CCc2cc3c(cc2C1C1OC(=O)c2c1ccc1c2OCO1)OCO3` (stereo unspecified), the cytotoxicity call in assay [1] and in assay [2] was “inactive” throughout. Further, the growth inhibition call in assay [3] is “inactive”.

As to `CN(C)C(=O)Oc1ccc[n+](C)c1.[Br-]`, the cytotoxicity call in assay [1] is “inactive”. Also, the cytotoxicity call in assay [2] is “active”. Besides, the growth inhibition call in assay [3] was “inactive”.

For the molecule `OCCN(CCO)CCO`, the cytotoxicity call in assay [1] and in assay [2] was “inactive” throughout. Further, the growth inhibition call in assay [3] is “inactive”.

For `NC(N)=NOCC[C@H](N)C(=O)O`, the cytotoxicity call in assay [1] and in assay [2] was “inactive” throughout. In assay [3], the growth inhibition call was “inactive”.

As to `Cc1nccc2c1[nH]c1cc(O)ccc12`, the cytotoxicity call in assay [1] was “inactive”. For the same molecule, the cytotoxicity call in assay [2] is “active”. Also, the growth inhibition call in assay [3] was “inactive”.

Consider `C[C@@H]1CN([C@H](C)CO)C(=O)c2c(c3ccccc3n2C)-c2ccccc2CO[C@@H]1CN(C)C(=O)Oc1ccccc1`, for which the cytotoxicity call in assay [1] and in assay [2] was “inactive” each time. The growth inhibition call in assay [3] was “inactive”.

`CCN1C[C@H]2CN(Cc3nccn3C)C[C@H]2C1=O`: the cytotoxicity call in assay [1] and in assay [2] was “inactive” in each case. Also, the growth inhibition call in assay [3] is “inactive”.

Consider `O=c1[nH]c2ccccc2n1CCCN1CCC(n2c(=O)[nH]c3cc(Cl)ccc32)CC1`, for which the cytotoxicity call in assay [1] and in assay [2] was “inactive” in each case. For the same molecule, in assay [3], the growth inhibition call is “inactive”.
